# Assay results published in patent US20210221864A1 (CITY OF HOPE, published 2021).
# B1: 329141 construct (IL2-L1-CH2-L2-IL-2Rα-LH masked cytokine receptor binding protein) (other)
# chain: [about 150 residues cut from this listing]GGVPLSLYSGNGGPSVFLFPPKPKDTLMISRTPEVTCVVVDVSHEDPEVKFNWYVDGVEVHNAKTKPREEQYNSTYRVVSVLTVLHQDWLNGKEYKCKVSNKALPAPIEKTISKAKGQPGASASGGGMLSLELCDDDPPEIPHATFKAMAYKEGTMLNCECKRGFRRIKSGSLYMLCTGSSSHSSWDNQCQCTSSATRSTTKQVTPQPEEQKERKTTEMQSPMQPVDQASLPGHCREPPPWENEATERIYHFVVGQMVYYQCVQGYRALHRGPAESVCKMTHGKTRWTQPQLICTGEASGGGGHHHHHH
# notes: Tested uncleaved (masked) and immobilised on the SPR chip; also called IL2-CH2-IL2Ra construct
# Target: T1, rhCD25-Fc (human, UniProt P01589 22-213)
# T1 construct: Used as SPR analyte at 1 to 16 nM; also called IL-2Rα-Fc; not shown: Fc part of the reagent
# T1 sequence (looked up): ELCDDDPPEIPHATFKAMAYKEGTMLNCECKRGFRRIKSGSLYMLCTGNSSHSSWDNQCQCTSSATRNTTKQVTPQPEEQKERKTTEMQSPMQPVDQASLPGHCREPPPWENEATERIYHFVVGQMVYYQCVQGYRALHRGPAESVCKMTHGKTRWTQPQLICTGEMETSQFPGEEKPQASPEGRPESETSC
# Test: SPR, 329141 immobilised, rhCD25-Fc as analyte
binder,measurement,value
B1,binding result,no binding
